Source: patent US20100080794A1 (published 2010)

Target: T1, CD16a (UniProt P08637)
T1 construct: whole, on cells; also called CD16a-expressing CHO-K1; CHO-K1 highly expressing CD16
Test: flow cytometry on CD16a-expressing CHO-K1 cells, biotin-labeled anti-AILIM antibody and PE-streptavidin

T1 sequence (P08637 17-254 limits assumed): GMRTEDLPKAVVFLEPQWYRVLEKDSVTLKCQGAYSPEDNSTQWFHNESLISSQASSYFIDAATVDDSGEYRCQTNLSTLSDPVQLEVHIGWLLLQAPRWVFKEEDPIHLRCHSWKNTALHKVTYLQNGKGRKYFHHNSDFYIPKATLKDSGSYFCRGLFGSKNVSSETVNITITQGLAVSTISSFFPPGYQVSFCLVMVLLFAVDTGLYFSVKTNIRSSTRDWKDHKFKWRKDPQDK

fold increased reactivity against Wt: ~2 fold
B1: AILIM-IgFc chimeric molecule Gln223Cys (Fc fusion)
chain: EINGSANYEMFIFHNGGVQILCKYPDIVQQFKMQLLKGGQILCDLTKTKGSGNTVSIKSLKFCHSQLSNNSVSFFLYNLDHSHANYYFCNLSIFDPPPFKVTLTGGYLHIYESQLCCQLKDPE[not shown - human IgG1 Fc with Q295C (EU numbers)]
notes: also called AILIM-IgFc Cys223; AILIM/ICOS-IgFc Cys mutant
